Results reported in the supplement of paper PMC12645437, “Orthogonal IMiD-Degron Pairs Induce Selective Protein Degradation in Cells” (ACS Chemical Biology, 2025).
The list shows a part of the results.

The sequences below were run against no compound (DMSO) (assay: log2 fold change of degron read counts, EGFP-low vs EGFP+ sorted cells; higher = lower degron-EGFP level without compound (poor expression or instability)). Conditions: compound: DMSO control; 18 h.
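Further: jurkat cells carrying a lentiviral library of mutant zinc finger degrons fused to EGFP plus mCherry, mCherry+ cells FACS sorted, degron abundance counted by next-generation sequencing.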

| Sequence | log2 fold change of degron read counts |
| --- | --- |
| FTCPQCGAFFTQKGNLLRHIKL | 0.377 |
| LKCNQCGFGCTQKGNLLRHIKL | 0.718 |
| FNCNVCGAFFTQKGNLLRHIKL | -0.017 |
| FICEICGHKFTQKGNLLRHIKL | -1.27 |
| FTCNQCGALFTQKGNLLRHIKL | -0.518 |
| FKCEICGRSFTQKGNLLRHIKL | -1.73 |
| FMCEQCGAYFTQKGNLLRHIKL | -0.894 |
| FECNICGARFTQKGNLLRHIKL | -1.1 |
| LECPICGFQCTQKGNLLRHIKL | 0.537 |
| FSCNQCGADFTQKGNLLRHIKL | -1.15 |
| FYCPICGAIFTQKGNLLRHIKL | 0.837 |
| FLCNQCGALFTQKGNLLRHIKL | 0.319 |
| FFCEQCGAWFTQKGNLLRHIKL | -0.262 |
| FACPQCGATFTQKGNLLRHIKL | -0.761 |
| LRCPICGFPCTQKGNLLRHIKL | 3.52 |
| FKCEQCGAEFTQKGNLLRHIKL | -2.12 |

| Sequence | log2 fold change of degron read counts |
| --- | --- |
| FLCEICGAMFTQKGNLLRHIKL | -1.12 |
| FRCNICGASFTQKGNLLRHIKL | -0.361 |
| FGCEQCGAHFTQKGNLLRHIKL | -0.798 |
| FCCDICGAKFTQKGNLLRHIKL | -0.446 |
| FYCDQCGAHFTQKGNLLRHIKL | -1.28 |
| FICNQCGRWFTQKGNLLRHIKL | 0.908 |
| FGCPVCGAEFTQKGNLLRHIKL | -0.403 |
| FYCDQCGAWFTQKGNLLRHIKL | 0.185 |
| FQCSVCGHVFTQKGNLLRHIKL | -0.227 |
| FRCPQCGAFFTQKGNLLRHIKL | -0.322 |
| FKCEVCGAIFTQKGNLLRHIKL | -1.95 |
| FECPICGHQFTQKGNLLRHIKL | -1.93 |
| LYCEICGFECTQKGNLLRHIKL | 0.0412 |
| FYCEVCGAFFTQKGNLLRHIKL | 0.0341 |
| FICEQCGALFTQKGNLLRHIKL | -0.931 |
| FDCEVCGAIFTQKGNLLRHIKL | -0.719 |
